# Assay results published in publication PMC12136788.
# The other results are listed elsewhere or left out.
# T1: UNK ZnF1-3 (human, UniProt Q9C0B0 31-174)
# T1 sequence: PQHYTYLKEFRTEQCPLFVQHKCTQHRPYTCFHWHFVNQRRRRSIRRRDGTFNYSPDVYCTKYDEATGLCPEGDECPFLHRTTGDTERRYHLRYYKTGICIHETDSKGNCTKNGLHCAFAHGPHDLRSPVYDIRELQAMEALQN
# B1: chr6:114281168:114281169:-_ENSG00000196591_ENST00000368632|hu_hu|hu_hu_hu_mus_True|88_98 (ssRNA)
# RNA: GGGAGUUCUACAGUCCGACGAUCUUCCAUUUUUCGGUAUAAGCCAUAAUUUAACAGCAAGUUAUGAGUCAUCCGGAUUCUAUGAGGCUUCAUGGGAUGACCCUGGCCAUAAUAAUAAUUGCCAAUAUCACCAUCAUAGUAGUACAACAGAGGAUUGAGCAUCA
# B2: chr5:37680062:37680063:+_ENSMUSG00000029121_ENSMUST00000031004|mus_hu|mus_mus_mus_hu_False|28_38 (ssRNA)
# RNA: GGGAGUUCUACAGUCCGACGAUCUUUGGGUGUAGCUGGUACCUCGUACACAGGACCGUCAUACAUGCCCCUGGAAACCCCUUGCAAUCCAAAAACCUUGCUUCUGAUCCUGACACGCUGGUACAGGUGCUCCGGGAACGCCUUCAACAGAGGAUUGAGCAUCA
# B3: chr1:95362928:95362929:-_ENSG00000117519_ENST00000538964|hu_mus|FALSE|FALSE (ssRNA)
# RNA: GGGAGUUCUACAGUCCGACGAUCGACCACAUUUAGCAAAUCAACUUUUUAGUCUUCCACAUACAAGCCAGAUACGUACUAAAACUGUAAAAAAAGGAGAAAAAAUAGUUUCCUAUUGUUCGAAAAUACCAGUUUAUGUGUAAGCAACAGAGGAUUGAGCAUCA
# B4: chr7:150069161:150069162:+_ENSG00000214022_ENST00000425389|hu_hu|FALSE|FALSE (ssRNA)
# RNA: GGGAGUUCUACAGUCCGACGAUCCUCUUUGCACGGGUAGGGCUUCUCGCCGGUGUGGAUGCGCCGGUGCGAAGUCAGAUAGGGCUUAUUGGUAAAGCGCUUCCCGCACUCGGGGCACUGGUGGGGCCGCUCGCCCGUGUGCACCAACAGAGGAUUGAGCAUCA
# B5: chr8:40069188:40069189:+_ENSMUSG00000039530_ENSMUST00000167992|mus_hu|FALSE|FALSE (ssRNA)
# RNA: GGGAGUUCUACAGUCCGACGAUCCUUCUGUCCUCCCCCGAGCUGGAUGCAGAGCAGCAGCAGCAGGAGAAGGAAGGGAAAGCUCCCGGUGGGCAGGUACCGCAGCCGCCGCCCCGCUUGCCUACGGCGUGAAGGAGCGCCCCGCAACAGAGGAUUGAGCAUCA
# B6: chr11:77336104:77336105:-_ENSG00000074201_ENST00000525064|hu_mus|hu_hu_hu_mus_False|1_8 (ssRNA)
# RNA: GGGAGUUCUACAGUCCGACGAUCCUCACACAUUGCUGUGAACAUCGCCUCCAAUGCUGACUUAUCACUGGGCACAAAUCGAAAUUCAGAAAUGGGUUCAACAUCAUCAUUGUCUUCCUCAUCUUCAUCAUCAGCAACAGGUUCCAACAGAGGAUUGAGCAUCA
# B7: 31337659_31337779_3093_3pUTR_ENSMUSG00000021962_ENSMUST00000022535|mouse|control|control (ssRNA)
# RNA: GGGAGUUCUACAGUCCGACGAUCCCGGCGGGACCGCUGCGUCUGUCAGCAUUAUUCACAGCGAAUCCUUACGCUAGCUGGUUGAGCCAACUGGGUUCUUACCCAUCAUUAAAUAGUGCUCAGAAAAGUAAGCAGUGCAUUAAUCAACAGAGGAUUGAGCAUCA
# B8: chr5:138699528:138699529:+_ENSG00000120727_ENST00000265192|hu_mus|FALSE|FALSE (ssRNA)
# RNA: GGGAGUUCUACAGUCCGACGAUCAUCCUCUUCAUGAGAAUGACCGUUAAUAAUCACAUCGUCAUUGAUGAUGCUUGGGCUAGUACUGCUGCGACUUGGAUCUUUCAUGGUUGGUGCUCGUUGUCGUUUUUAACCCAGUGCACGCAACAGAGGAUUGAGCAUCA
# B9: chr12:39763582:39763583:-_ENSG00000139116_ENST00000544797|hu_mus|hu_hu_hu_mus_False|28_48 (ssRNA)
# RNA: GGGAGUUCUACAGUCCGACGAUCCUCUAGGAACUGGGCAUUCACUUUGAAUUCAGGAGGGGGCAGCCCGUUUUUAAUCGCUGAGGUUUUUUUUUCUUCAAUACUCUUAAAAAGGUGUCUAACAGCACGAGAGAUGAUGCCCUGCAACAGAGGAUUGAGCAUCA
# B10: chr2:179883191:179883192:+_ENSMUSG00000039050_ENSMUST00000040668|mus_hu|FALSE|FALSE (ssRNA)
# RNA: GGGAGUUCUACAGUCCGACGAUCGUAGAUGGAGCCAUGGAACAGGAAGUCAUGGUUGAGACCUUCCGAGUGGAACGCACUGAUGGGGGGGUGGUGACUGACCUGUUCCGAUAUAAAUCUGAAUCCUAAAUCUUCCCUGAUUAACAACAGAGGAUUGAGCAUCA
# B11: chr1:63226128:63226129:+_ENSMUSG00000025967_ENSMUST00000135877|mus_hu|FALSE|FALSE (ssRNA)
# RNA: GGGAGUUCUACAGUCCGACGAUCCUCAAAAGCAGUGAUCUGCUCCUCCAGCAUAUCUGUUCCAACUUUAUCAUCUUCAACUACACACUGUAUUUGAAGUUUCUUAAUUCCGUAUCCCACUGGAACUAGUUUAGAUGAGCCCCACAACAGAGGAUUGAGCAUCA
# B12: chr4:40680873:40680874:+_ENSMUSG00000028410_ENSMUST00000030118|mus_hu|motif|central (ssRNA)
# RNA: GGGAGUUCUACAGUCCGACGAUCCUGAUACCCAGAUUUAAGCAUGUGAACAUAUGAGACUUUUAAACAUACAAUUAAAGCGGUUCAUCAUAAUUUGCUAUACUACCAACAUAACUUUGGAGCGAAAGUCAAAUGGUUUAAAGUCAACAGAGGAUUGAGCAUCA
# B13: chr6:97339032:97339033:-_ENSG00000123545_ENST00000316149|hu_hu|FALSE|FALSE (ssRNA)
# RNA: GGGAGUUCUACAGUCCGACGAUCUCUUCAUUUUGAUCGUAUUGCUUUCUUGUCUUCAGGAGGGAAGAUUUCGACUUCAAAAGUAACAAAAUAUUUAAGAAGAGAAUUCACAUCUUUCUGUUCUAACUGGUAUUCCUGCAUUAUCAACAGAGGAUUGAGCAUCA
# B14: chr18:13845789:13845790:-_ENSMUSG00000024420_ENSMUST00000025288|mus_mus|FALSE|FALSE (ssRNA)
# RNA: GGGAGUUCUACAGUCCGACGAUCAGAACCAUGGGGCAGUGACCCUGCGUUGUGAUGCUGGAGAUGUGGCUGUCACAGGCUAGUCCAUUGGUGACAAGGGGUCACACAUCCAUCAGUCCAGGUUGCAUUUUUCUUACCUCAAAGCAACAGAGGAUUGAGCAUCA
# B15: 21681251_21699202_537_CDS_ENSG00000092199_ENST00000553300|human|control|control (ssRNA)
# RNA: GGGAGUUCUACAGUCCGACGAUCUACACGUGCUGGGUAACUGUACAUCCUAUCAUAAUAGUCCCGUUGAAAGUCAUAGUCCAAGUCAAAAGAGGAGCCGUACAUCUCCGCUGCAGAUCGUUUCACACCUGCUUUUCCUCGGUUCAACAGAGGAUUGAGCAUCA
# B16: 69550059_69550179_5424_3pUTR_ENSG00000198380_ENST00000361060|human|control|control (ssRNA)
# RNA: GGGAGUUCUACAGUCCGACGAUCUGCCUUCCAAUGAACCUAGUCUUUGCUAGUGAUGAGUCCAUCUGGGGACAAAUACUGCUUUAAAGAUGAUGUAAUUUUCAAUGCCAACCACAGUGACUUUCCCAUAAUAGGUAUUAAUAACAACAGAGGAUUGAGCAUCA
# B17: chr9:91930108:91930109:+_ENSG00000123975_ENST00000314355|hu_hu|FALSE|FALSE (ssRNA)
# RNA: GGGAGUUCUACAGUCCGACGAUCACCAAGUCUCCUCCACUCCUCUUCAGACAUCAGAUGAGUUUUAGGUACUUGUUUGGAAAGUUCUCUGGGUAACAUAACAUGCCGGUACUCGUAGUGUUCGUCGAAGUACUUGUCCGAGUACAACAGAGGAUUGAGCAUCA
# B18: chr1:229634031:229634032:-_ENSG00000069248_ENST00000261396|hu_hu|FALSE|FALSE (ssRNA)
# RNA: GGGAGUUCUACAGUCCGACGAUCCUGAUGAAUCUUUCCUGAGCUCUCAGGUAUCAACCGAAUUAGUUGGCUUCCUGAUGAAGACAAAAUAAAACUUCCUCCCUGCACUGCUGUUAGGAAACUGUAAGUCUUAUCACCUCCCGACAACAGAGGAUUGAGCAUCA
# B19: 126726007_126726127_2122_CDS_ENSMUSG00000043872_ENSMUST00000106102|mouse|control|control (ssRNA)
# RNA: GGGAGUUCUACAGUCCGACGAUCGUGUAGUGCCUCGCGGAGCUCCUUCACCUCCUUACAGAAGCUAAUCACCGCUAACUCCAAAAAAUGGGCGUGACAAUGCACAUAGAGAGCUCUUGGCUCUUCCUUCUUGAAUUCUGCUACCAACAGAGGAUUGAGCAUCA
# B20: 51746606_51747526_668_3pUTR_ENSMUSG00000008140_ENSMUST00000118515|mouse|control|control (ssRNA)
# RNA: GGGAGUUCUACAGUCCGACGAUCGGAUGAGGUGCCAGUAUUUGGCAAAGAAAGACUUCUGCUCCUGUGGGUUCUUGGCCUUCUGGGCCUGCUCCAUCUCCAGGCGCUCAAUGAAGGCUGCAGUCUCGGGGCCUGGAGCAGUGCCAACAGAGGAUUGAGCAUCA
# B21: chr11:87793471:87793472:-_ENSMUSG00000020483_ENSMUST00000020775|mus_mus|mus_mus_mus_hu_False|18_18 (ssRNA)
# RNA: GGGAGUUCUACAGUCCGACGAUCUGGACUUGAAAAUAAAAGAAUAAGCUGGAUCCCCCACCCCCCCACAUUGUCAACCCUACACGAGAGUUUUGAAGGCGACUCAUGAAAAUCAGCCUCAAUUGGCGCAAUGACCACCCCACCCAACAGAGGAUUGAGCAUCA
# B22: chr7:136912400:136912401:-_ENSG00000105894_ENST00000348225|hu_hu|motif|central (ssRNA)
# RNA: GGGAGUUCUACAGUCCGACGAUCUUUUGUUUAGUAUAUAUUUUUCUCAAUUGGGAAAAAAAUCUAGGUGAAAAAAAUUACCGGACAAGAGAAGUAGUUUACAUAGUCAUAACAUUUAAAUUGCUGCCCAAAAAAUGUAAAAAACAACAGAGGAUUGAGCAUCA
# Target: T1, UNK ZnF1-3
# Assay: nsRBNS (natural sequence RNA bind-n-seq); RBNS binding buffer (assumed for nsRBNS): 25 mM Tris pH 7.5, 150 mM KCl, 3 mM MgCl2, 0.01% Triton X-100, 500 ug/ml BSA, 20 U/ml SUPERase-In, 4 C; UNK is unkempt and MSI1 is Musashi-1; names of the RNAs are library labels; protein concentration not given here; high values mean tight binding
row,Binder,binding signal
1,B1,0.735 enrichment R
2,B2,0.878 enrichment R
3,B3,1.09 enrichment R
4,B4,0.467 enrichment R
5,B5,0.686 enrichment R
6,B6,1.23 enrichment R
7,B7,0.321 enrichment R
8,B8,0.63 enrichment R
9,B9,1.84 enrichment R
10,B10,0.545 enrichment R
11,B11,0.599 enrichment R
12,B12,0.929 enrichment R
13,B13,0.856 enrichment R
14,B14,0.901 enrichment R
15,B15,1.09 enrichment R
16,B16,0.966 enrichment R
17,B17,0.551 enrichment R
18,B18,1 enrichment R
19,B19,0.858 enrichment R
20,B20,0.914 enrichment R
21,B21,1.7 enrichment R
22,B22,1.7 enrichment R
